Data on 14 compounds can be found in US20200231607A1, “TRISUBSTITUTEDSILYLHETEROARYLOXYQUINOLINES AND ANALOGUES” (Bayer Aktiengesellschaft, priority 2017, published 2020).

Molecules are shown by their SMILES.

The procedure of this data set: In table 1, the log P values were determined in accordance with EEC Directive 79/831 Annex V.A8 by HPLC (High Performance Liquid Chromatography) on a reversed-phase column (C 18), using the method described below:
temperature: 40° C.; mobile phases: 0.1% aqueous formic acid and acetonitrile; linear gradient from 10% acetonitrile to 95% acetonitrile;
Calibration was carried out using unbranched alkan-2-ones (comprising 3 to 16 carbon atoms) with known log P values (determination of the log P values by the retention times using linear interpolation between two successive alkanones). lambda-max-values were determined using UV-spectra from 200 nm to 400 nm and the peak values of the chromatographic signals.

One may read the logP as a log measure of how a compound divides between an organic and an aqueous phase. A higher logP goes with higher lipophilicity. As to `C[Si](C)(c1ccccc1)c1c(Oc2cnc3ccccc3c2)ccnc1F` [I.04], the log partition coefficient (logP) amounted to 4.43.
For `C=C[Si](C)(C)c1c(Oc2cnc3ccccc3c2)ccnc1F` [I.05] the value was 4.13; for `CC[Si](C)(C)c1c(Oc2cnc3ccccc3c2)ccnc1F` [I.07], 4.35.
For `CC(C)[Si](C)(C)c1c(Oc2cnc3ccccc3c2)ccnc1F` [I.08] the value was 4.75; for `CCC[Si](C)(C)c1c(Oc2cnc3ccccc3c2)ccnc1F` [I.09], 4.84.
The same measure for `CCCC[Si](C)(C)c1c(Oc2cnc3ccccc3c2)ccnc1F` [I.10]: 5.40; for `C[Si](C)(c1cccs1)c1c(Oc2cnc3ccccc3c2)ccnc1F` [I.11]: 4.33; for `COc1ccc([Si](C)(C)c2c(Oc3cnc4ccccc4c3)ccnc2F)cc1` [I.12]: 4.33.
`C[Si](C)(C)c1c(Oc2cnc3ccccc3c2)ccnc1Cl` [I.13] returned a logP of 3.39.
For the compound `Cc1cc2ncn(Cc3sccc3[Si](C)(C)C)c2cc1C` [I.17], the logP is listed as 2.40.
The same measure for `Cc1nc2c(F)c(F)ccc2nc1Oc1nn(C)c(C(F)(F)F)c1[Si](C)(C)C` [I.20]: 5.39.
`Cc1nc2c(F)c(F)ccc2nc1Oc1nocc1[Si](C)(C)C` [I.21] came in with a lipophilicity (logP) of 4.30.
Take `Cc1nc2c(F)c(F)ccc2nc1Oc1nn(C)c(C(F)(F)F)c1[Si](C)(C)O` [I.22]: the logP stood at 3.33.
For `Cc1nc2c(F)c(F)ccc2cc1Nc1ccnc(C(F)(F)F)c1[Si](C)(C)C` [I.27] the value was 4.27.
